Data as given in publication PMC4336329 (PLoS ONE, 2015).
The campaign covered roughly 310,000 compounds. About 14,000 (4.5%) showed an effect of 50% or more. Effects have a minus sign here. Some of the results follow.

target: human ether-à-go-go-related gene (hERG) potassium channel (human, UniProt Q12809); test: primary screen, population patch clamp on CHO cells stably expressing hERG
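Note: peak tail current of the secondary pulse compared with the same well before compound.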

Chain of human ether-à-go-go-related gene (hERG) potassium channel (Q12809 whole entry, looked up): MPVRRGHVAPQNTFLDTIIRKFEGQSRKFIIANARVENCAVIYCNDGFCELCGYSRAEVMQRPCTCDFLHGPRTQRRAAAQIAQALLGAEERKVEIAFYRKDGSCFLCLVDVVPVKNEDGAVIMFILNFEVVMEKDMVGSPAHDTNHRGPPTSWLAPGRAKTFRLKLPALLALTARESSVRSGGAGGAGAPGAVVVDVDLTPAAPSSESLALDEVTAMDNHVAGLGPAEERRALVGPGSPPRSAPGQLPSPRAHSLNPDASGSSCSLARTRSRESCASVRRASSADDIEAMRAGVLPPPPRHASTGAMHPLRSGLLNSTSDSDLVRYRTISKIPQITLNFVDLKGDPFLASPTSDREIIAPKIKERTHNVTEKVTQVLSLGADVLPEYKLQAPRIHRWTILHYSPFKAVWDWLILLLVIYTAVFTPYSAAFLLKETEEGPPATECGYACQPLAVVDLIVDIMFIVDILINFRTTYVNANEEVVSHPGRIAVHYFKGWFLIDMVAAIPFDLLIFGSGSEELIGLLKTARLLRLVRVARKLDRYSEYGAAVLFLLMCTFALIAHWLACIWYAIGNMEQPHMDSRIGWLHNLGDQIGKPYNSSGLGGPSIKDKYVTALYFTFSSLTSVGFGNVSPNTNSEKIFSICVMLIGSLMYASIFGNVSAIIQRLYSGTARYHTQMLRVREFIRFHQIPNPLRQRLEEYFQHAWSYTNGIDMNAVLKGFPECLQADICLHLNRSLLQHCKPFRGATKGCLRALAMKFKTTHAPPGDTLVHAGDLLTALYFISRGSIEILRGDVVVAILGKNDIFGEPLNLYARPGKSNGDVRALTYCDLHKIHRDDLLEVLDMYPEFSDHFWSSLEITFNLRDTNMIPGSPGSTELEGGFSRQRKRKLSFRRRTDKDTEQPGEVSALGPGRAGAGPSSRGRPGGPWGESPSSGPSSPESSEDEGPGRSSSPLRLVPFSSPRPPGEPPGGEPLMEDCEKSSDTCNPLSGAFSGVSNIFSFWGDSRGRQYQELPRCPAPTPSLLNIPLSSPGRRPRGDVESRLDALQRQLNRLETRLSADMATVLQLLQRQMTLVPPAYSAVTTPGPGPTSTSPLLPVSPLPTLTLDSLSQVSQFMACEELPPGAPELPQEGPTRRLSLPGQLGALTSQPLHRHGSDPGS

Compound | hERG current change (%, negative = inhibition) at 10uM
Cc1c(NC(=O)CN2C(=O)NC(C)(c3ccc4c(c3)OCCO4)C2=O)c(=O)n(-c2ccccc2)n1C (stereo not drawn) | 10.8%
CC1CN(C(=O)c2ccc(COCC(F)(F)F)o2)CC(C)O1 (stereo not drawn) | 5.66%
CCn1c(SCC(=O)N2CCCCC2C)nc2c1c(=O)n(C)c(=O)n2C (stereo not drawn) | 7.11%
CCN(CC(=O)NCC1CCCO1)S(=O)(=O)c1ccc(Cl)cc1 (stereo not drawn) | 17.6%
CS(=O)(=O)c1ccc2nc(NC(=O)c3ccco3)sc2c1 | 1.39%
COc1ccc(CN2C(=O)NC3(CCCC3)C2=O)cc1F | -17.3%
C=CCC(=O)OCCCCCCOc1ccc(C(=O)O)cc1 | -3.87%
N#Cc1c(N)c(C(=O)c2ccc(Cl)cc2)n2c1CCC2 | 5.5%
Cc1ncoc1C(=O)Nc1nccs1 | -0.642%
C=CCSc1nc(C)c(CC=C)c(=O)[nH]1 | 8.83%
CC(=O)c1ccc(OCCCC(=O)OCC(=O)N2CCN(c3ccccc3)CC2)cc1 | 18.7%
CCc1ccc(C(=O)NNc2ccc(S(N)(=O)=O)cc2)cc1 | 9.05%
O=C(CC1SC(N2CCCC2)=NC1=O)Nc1ccc(C(=O)N2CCN(c3cccc(Cl)c3)CC2)cc1 (stereo not drawn) | 9.33%
CC(Sc1nnnn1C1CCCCC1)C(=O)O (stereo not drawn) | 18.3%
O=C(Nc1ccc(S(=O)(=O)Nc2nccs2)cc1)c1ccc(=O)[nH]c1 | 2.42%
Cc1cc(C)c(C#N)c(SCC(=O)c2cccs2)n1 | -5.5%
O=C(Nc1ccc(Cl)c(-c2nc3ccccc3[nH]2)c1)c1cccnc1 | 24%
Nc1[nH]c(=S)nc2nc(-c3ccccc3)c(-c3ccccc3)nc12 | -3.31%
Cc1cccc(NC(=O)c2oc3c(c2C)C(=O)CC(C)(C)C3)n1 | -14.9%
COc1ccc(Cl)cc1NC(=O)N1CCC(C)CC1 | 5.57%
CCCCN1CCc2c([nH]c3ccccc23)C1=O | 6.99%
O=C(Nc1ncc([N+](=O)[O-])s1)c1ccc2c(c1)OCO2 | 2.75%
Cc1ccc(OCC(=O)NCc2n[nH]c(=O)c3ccccc23)cc1 | -38.5%

Compound | hERG current change (%, negative = inhibition) at 10uM
N#Cc1c2n(c3c(=O)n(Cc4ccccc4Cl)cnc13)CCCC2 | -34.3%
COc1ccc(NC(=O)C2CCN(C(=O)c3cccs3)CC2)cc1OC | -10.8%
O=C(Nc1ccc2c(c1)OCO2)c1cccc2c1C(=O)N(Cc1cccnc1)C2 | -47%
Cc1cc(C)cc(N(CC(=O)N2CCC(C)CC2)S(C)(=O)=O)c1 | -38.6%
COC(=O)c1ccc2c(c1)C(C)(C)C(/C=C/c1ccc(O)cc1)=[N+]2C.[I-] | -70.9%
CCCN(CCC)CCCNC(=O)Cn1cnc2sc(C)c(S(=O)(=O)N3CCCCC3)c2c1=O | 9.2%
CC(=O)c1cnc(Nc2ccccc2)s1 | 4.3%
COCCSc1nnc(-c2cnccn2)o1 | 15.6%
Oc1cc2ccccc2cc1-c1n[nH]c(=S)o1 | 5.84%
c1ccc2c(Nc3nc4c(s3)CCCC4)cccc2c1 | 2.23%
Cc1nc2ccc(NC(=O)COc3ccccc3C)cc2s1 | 15.5%
O=C(CSc1ccc(-c2ccc(-n3cccn3)cc2)nn1)Nc1ccc([N+](=O)[O-])cc1 | 11%
CC1(C)CC(O)C(CCC(O)c2ccccc2)C(C)(C)N1 (stereo not drawn) | 15.9%
CC(=O)O/N=C(\N)Cc1ccc(-c2csnn2)cc1 | -0.358%
O=C(COC(=O)COc1ccc(Cl)cc1)NC1CCCC1 | 7.09%
C=COCCNC(=S)Nc1cccc(Cl)c1 | 4.4%
Cc1cc(C)cc(NC(=S)NCCN2CCOCC2)c1 | -1.78%
Cn1c(=O)[nH]c(=O)c2c1nc(Br)n2CCSc1ncccn1 | 7.96%
CCCCNC(=O)c1ccc(C)c(NC(=O)C2=C(C)OCCS2)c1 | 10.7%
O=C(NCC1CCN(C(=O)c2ccc([N+](=O)[O-])cc2)CC1)c1ccc([N+](=O)[O-])cc1 | -71.3%
CCOC(=O)N/N=C\C=C\c1ccco1 | 6.25%
Cc1cccc(-c2nnc(SCc3nc4ccccc4[nH]3)n2Cc2ccco2)c1 | -48.8%
Cc1nn(-c2ccccc2)c(-n2cccc2)c1C(=O)O | 17.3%

Compound | hERG current change (%, negative = inhibition) at 10uM
CCCNC(=O)c1cnc(Sc2ncc(C(F)(F)F)cc2Cl)n1C | -6.91%
COc1cc(NC(=O)CN2C(=O)COc3ccc(S(=O)(=O)N4CCCCC4)cc32)cc(OC)c1 | -4.81%
COC(=O)c1cc(OC)c(OC)cc1NC(=O)Cn1nnc(-c2ccccc2Cl)n1 | -34.5%
CC(=O)N(CCP(=O)(c1ccccc1)c1ccccc1)Cc1ccco1 | -4.55%
O=C(NCCO)C(=O)NCC(c1ccc2c(c1)OCO2)N1CCN(c2ccc(F)cc2)CC1 (stereo not drawn) | -0.454%
Cc1ccc(NC(=O)CN2CCN(c3ccccn3)CC2)c(Cl)c1 | -1.57%
CC1CCN(S(=O)(=O)c2ccc(Oc3ccc([N+](=O)[O-])cc3)cc2)CC1 | -21.7%
CCN(CC(=O)NC(=O)NCc1ccccc1)CC(=O)Nc1cc(Cl)ccc1C | -21.9%
COc1cccc(/C=C/C(=O)OC(C)C(=O)Nc2c(C)n(C)n(-c3ccccc3)c2=O)c1 (stereo not drawn) | -7.55%
CCCCn1c(N)c(N(CC)C(=O)CSc2nnc(-c3ccco3)n2CC)c(=O)[nH]c1=O | 8.75%
Cc1cc(=O)c(C(=O)O)nn1-c1ccccc1F | 9.89%
O=C(Cc1n[nH]c(=O)c2ccccc12)N/N=C/c1cc2c(cc1Cl)OCO2 | 26.5%
CCOCCCn1cnc2c(c1=O)c1nc3ccccc3nc1n2-c1ccc(C)cc1 | -25.1%
Cc1nc2ccc(S(=O)(=O)NCC(=O)N3CCc4ccccc4C3)cc2s1 | 0.862%
CC(=O)c1ccc(N2CCN(C(=O)C3CCCN(c4ncnc5c4nc4n5CCCCC4)C3)CC2)cc1 (stereo not drawn) | -75.4%
Cc1noc(C)c1COC(=O)c1cc2ccccc2cc1O | 2.63%
CCCN1CNC(=S)N(CC2CCCO2)C1 (stereo not drawn) | 5.19%
Cc1cccc(C(=O)N[C@H](C(=O)NCCc2ccc(S(N)(=O)=O)cc2)C(C)C)c1 | 0.0238%
Clc1ccc(Nc2ccccc2)nn1 | 19.6%
CCCc1nnc(SCC(=O)NC2CCCCC2)n1CCOC | 8.59%
CC(C)CCNC(=O)CN(C(=O)Cn1nnc(-c2ccc(F)cc2)n1)C1CCCC1 | 6.25%
CCOC(=O)N1CCN(C(=O)CN(CC)S(=O)(=O)c2cc(C)ccc2OC)CC1 | -5.37%
CCOC(=O)C1CCN(C(=O)Cn2nc(C)n3c(cc4cc(F)ccc43)c2=O)CC1 | -42.1%

Compound | hERG current change (%, negative = inhibition) at 10uM
COc1cc(/C=N/NC(=O)C[n+]2ccccc2)cc(OC)c1OC.[Cl-] | 3.34%
Cc1cn([C@@H](CCCCN)C(=O)NCCCCCCCCCCC(=O)N2CCNCC2)nn1 | -2.33%
O=c1oc2ccccc2cc1-c1cn2cccnc2n1 | 1.91%
CCCCOC(=O)C1C2C=CC3(CN(CCc4ccccc4)C(=O)C13)O2 (stereo not drawn) | -3.74%
COc1ccc(CN2CCCC(CNC(=O)c3ccc(F)cc3)C2)c(C)c1C (stereo not drawn) | -75.5%
COc1ccc(C(=O)NC2CC2)cc1OC1CCN(Cc2ccccc2O)CC1 | -102%
CC(C)/C=C/C(=O)N1CCC(N2CCC(C(=O)N3CCOCC3)CC2)CC1 | 11%
COC(=O)CCCCCNC(=S)Nc1ccc2[nH]c(=O)[nH]c2c1 | 10.7%
CC(=O)O[C@@H]1[C@H]2[C@@H](C[C@@H](C)[C@@H]3C=CC(=O)[C@@]13C)OC(=O)[C@@H]2C | 0.325%
CCOC(=O)c1cc(NC(=O)c2ccccc2)c(=O)n2c1oc1ccccc12 | 7.77%
O=c1oc2ccccc2nc1/C=C(O)/C=C/c1ccc(F)cc1 | 12.8%
C=CCn1c(O)c(N=Nc2ccccc2O)c2ccccc21 | 6.19%
Cl.O=C(O)CC1NCCc2ccccc21 (stereo not drawn) | 10.2%
O=C(Nc1ccccc1N1CCCCC1)c1ccc(-c2cc(Cl)ccc2Cl)o1 | 21.5%
N#CC1=C(N)OC2=C(C(=O)CCC2)C1c1cc2c(cc1Br)OCO2 (stereo not drawn) | 9.92%
O=C(Cc1ccccn1)c1ccc(F)cc1 | 10.1%
COCCCNC(=S)NNC(=O)c1cc(C2CC2)nc2ccccc12 | 14.9%
O=C(CCN1C(=O)c2cccc([N+](=O)[O-])c2C1=O)Nc1nccs1 | 13.6%
CC(C)(C)NC(=O)C(c1ccncc1)N(C(=O)c1csnn1)C1CC1 (stereo not drawn) | 6.94%
COC(=O)C1=C(c2ccc(F)cc2F)C[C@@H]2CC[C@H]1N2C(=O)NC1CC1 | 8.92%
Clc1ccc(Oc2nc(Oc3ccc(Cl)cc3)nc(N3CCOCC3)n2)cc1 | -7.63%
